Experimental findings from PubChem BioAssay AID1508642 (National Center for Advancing Translational Sciences (NCATS), 2021) are described below.

The whole screen tested about 43,000 compounds, of which about 200 (0.47%) were called active. Inconclusive results (about 12%) are left out. Calls come from the whole dose curve; as a rule, active = well fitted cell-killing curve with a large enough effect; inconclusive = small, poorly fitted or top-dose-only effect, or effect the other way; inactive = flat fitted curve, though single readings scatter. This is one part of the list.
% is set by controls: 0 for no effect and ±100 for the full control effect.

The nature of the assay: Cell viability qHTS assay in S16 Pmp22-F2sN cells. Note: nearly all actives have a fitted effect of over 65% in size. Particulars: S16 Pmp22-F2sN Schwann cells (luciferase reporters placed in the Pmp22 gene) viability, CellTiter-Glo, 24 h; series mostly up to 57.5 µM; activity change, negative = cytotoxicity: at the top concentration. Summed up: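 Rat S16 Schwann reporter line, 24 h treatment with library compounds delivered at 23 nL per well. Cell viability by CellTiter-Glo luminescence.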
On the technique in general: qHTS replaces the single test concentration by a dilution series.
Take `Cc1cccn2c(=O)c(C(=O)N3CCN(c4ccccc4)CC3)cnc12`: the “activity change, negative = cytotoxicity” value was inactive: -1.41%.

As to `Cc1ccc(C(=O)c2c(N)c(C(=O)Nc3cccc(C(F)(F)F)c3)c3ccccn23)cc1`, the “activity change, negative = cytotoxicity” value was inactive: 19.4%.

Take `Cc1ccc(-n2c(=O)c3oc4ccccc4c3n(Cc3cccc(F)c3)c2=O)cc1C`: the “activity change, negative = cytotoxicity” value is inactive: -12.8%.

In the case of `COc1cc(NC(=O)c2nn(C)c3c2COc2ccccc2-3)cc(OC)c1OC`, the “activity change, negative = cytotoxicity” value is inactive: -3.72%.

`CCOc1ccccc1NC(=O)C1=C(C)Nc2ncnn2C1c1ccco1` (stereo not drawn): the “activity change, negative = cytotoxicity” value is inactive: -2.3%.

Take `COc1ccc(CCNC(=O)c2ccc(Cn3c(SCc4ccccc4)nc4cccnc43)cc2)cc1`: the “activity change, negative = cytotoxicity” value was inactive: 13.3%.

Consider `CCc1cnc2c(c1SC(C(C)=O)C(=O)N(C)C)c(=O)n(C)c(=O)n2C` (stereo not drawn), for which the “activity change, negative = cytotoxicity” value was inactive: -17.9%.

As for `O=C(CCn1c(=O)c2ccccc2n(CC(=O)Nc2ccc(F)cc2)c1=O)NCCc1ccccc1`, the “activity change, negative = cytotoxicity” value was inactive: 3.61%.

In the case of `COc1ccc(CC(=O)NCC(c2cccs2)S(=O)(=O)c2ccc(F)cc2)cc1` (stereo not drawn), the “activity change, negative = cytotoxicity” value was inactive: -3.98%.

On to `O=C(CN1CCN(Cc2ccccc2F)C1=O)NCc1ccccc1`, for which the “activity change, negative = cytotoxicity” value was inactive: 2.15%.

For the molecule `Cc1ccc(C(=O)N(Cc2ccco2)c2ccccn2)cc1`, the “activity change, negative = cytotoxicity” value is inactive: 0.476%.

For the molecule `COc1ccccc1NC(=O)c1cnn(-c2ccccc2)c1-n1cccc1`, the “activity change, negative = cytotoxicity” value is inactive: 2.73%.

As to `CCc1ccc(C2CC(=O)Nc3c2c(=O)nc2c(C)cccn32)cc1` (stereo not drawn), the “activity change, negative = cytotoxicity” value was inactive: -0.57%.

Consider `CC(C)c1ccc(NC(=O)c2ccc(CN3CC(=O)N4CCCCC4C3=O)cc2)cc1` (stereo not drawn), for which the “activity change, negative = cytotoxicity” value was inactive: 17.9%.

With `COc1ccccc1C(=O)Nc1ccc(C(=O)OCc2cc(=O)n3c4c(sc3n2)CCCC4)cc1`, the “activity change, negative = cytotoxicity” value was inactive: -0.77%.

Take `CCOc1ccc(C2C(C(N)=O)=C(C)Nc3nc(SCc4ccccc4F)nn32)cc1` (stereo not drawn): the “activity change, negative = cytotoxicity” value was inactive: 15.5%.

As to `COc1ccc(-c2nc3sc(CCNC(=O)C(=O)Nc4ccccc4C#N)c(C)n3n2)cc1`, the “activity change, negative = cytotoxicity” value is inactive: -5.14%.

With `CCOC(=O)c1ccccc1NC(=O)c1c(C)oc2ncnc(N3CCOCC3)c12`, the “activity change, negative = cytotoxicity” value was inactive: 3.72%.

As to `COc1cccc(-n2c(=O)c3c(C)c(C)sc3n(Cc3ccccc3C#N)c2=O)c1`, the “activity change, negative = cytotoxicity” value is inactive: 3.91%.

With `Cc1cccc(C(=O)Nc2ccccc2OCc2cc(=O)n3cc(C)ccc3n2)c1`, the “activity change, negative = cytotoxicity” value is inactive: 7.9%.

For the molecule `Cc1c(Cl)cccc1NC(=O)Cn1c(=O)n(Cc2ccco2)c(=O)c2oc3ccccc3c21`, the “activity change, negative = cytotoxicity” value was inactive: -4.5%.

For the molecule `COC(=O)c1c(Oc2ccc(Br)cc2)nnc(-c2ccccc2)c1-c1ccccc1`, the “activity change, negative = cytotoxicity” value is inactive: -12.4%.

Consider `Cc1ccc(CN2CCC(CNC(=O)Nc3cccc(C)c3C)C2)cc1` (stereo not drawn), for which the “activity change, negative = cytotoxicity” value is inactive: -11.2%.

Consider `O=C1CC(c2ccc(Br)cc2)c2c(ccc3ccccc23)N1` (stereo not drawn), for which the “activity change, negative = cytotoxicity” value was inactive: 0.194%.

As for `CC(C)n1c(=O)c2oc3ccccc3c2n(CC(=O)Nc2ccccc2Cl)c1=O`, the “activity change, negative = cytotoxicity” value was inactive: 22.5%.

In the case of `COc1ccccc1-c1c(C)nn2c(N3CCN(c4ccc(F)cc4)CC3)cc(C)nc12`, the “activity change, negative = cytotoxicity” value is inactive: 21.3%.

For `CCN(CC)CCCNc1oc(-c2ccc(OC)cc2)nc1C#N`, the “activity change, negative = cytotoxicity” value is inactive: 14.7%.

With `COC(=O)c1cc2sccc2n1Cc1nc(-c2ccc(C)cc2)oc1C`, the “activity change, negative = cytotoxicity” value was inactive: -1.81%.

Consider `Cc1cc(C)c(NC(=O)C2CCCN(C(=O)c3cnn(-c4ccccc4)c3-n3cccc3)C2)c(C)c1` (stereo not drawn), for which the “activity change, negative = cytotoxicity” value is inactive: -22.9%.

Regarding `CCc1ccccc1NC(=O)c1ccc2c(c1)c(C)c(C)n2Cc1ccccc1`, the “activity change, negative = cytotoxicity” value is inactive: -22.3%.

For `CN(C(=O)CSc1nc2ccccc2n1CC(=O)N(C)C1CCCCC1)c1ccc(F)cc1`, the “activity change, negative = cytotoxicity” value is inactive: -9.91%.

For `CC(=O)Nc1ccc2nc(SCCOc3ccccc3Cl)sc2c1`, the “activity change, negative = cytotoxicity” value is inactive: -5.83%.

Turning to `CCCCN(c1ccccc1)c1ncnc2c1cnn2-c1cccc(C)c1`, the “activity change, negative = cytotoxicity” value is inactive: 2.45%.

In the case of `CCOc1ccc(NC(=O)Cn2c(=O)n(-c3ccccc3)c(=O)c3c4c(sc32)CCCC4)cc1`, the “activity change, negative = cytotoxicity” value was inactive: 17.2%.

On to `CCc1nnc2c3ccccc3nc(N3CCN(c4cc(Cl)ccc4C)CC3)n12`, for which the “activity change, negative = cytotoxicity” value is inactive: 5.2%.

Take `O=C(COc1ccc(Br)cc1)Nc1ccc(C(=O)OC2CCCCC2)cc1`: the “activity change, negative = cytotoxicity” value was inactive: -5.06%.

Turning to `O=C(Cn1cc(S(=O)(=O)Cc2ccccc2Cl)c2ccccc21)Nc1ccc(F)cc1F`, the “activity change, negative = cytotoxicity” value was inactive: -25.1%.

With `Cc1ccc(Cn2c(CO)cnc2SCC(=O)Nc2cccc(F)c2)cc1`, the “activity change, negative = cytotoxicity” value is inactive: 20.3%.

For the molecule `COc1ccc(-c2noc(-c3ccc(NCCc4ccccc4)c([N+](=O)[O-])c3)n2)cc1`, the “activity change, negative = cytotoxicity” value is inactive: -1.83%.

For the molecule `CCOc1ccc(S(=O)(=O)N2CCC(n3c(C)nc4cccnc43)CC2)cc1`, the “activity change, negative = cytotoxicity” value was inactive: -26.1%.

For `COC(=O)c1ccc2c(c1)N(Cc1cc(C)ccc1C)C(=O)c1ccccc1S2(=O)=O`, the “activity change, negative = cytotoxicity” value is inactive: 0.095%.

As to `O=C(Cn1ncc2c(Cl)cccc21)NCc1cccc(F)c1`, the “activity change, negative = cytotoxicity” value was inactive: -0.747%.

On to `CCOc1ccc(CNC(=O)c2ccc3c(c2)N(Cc2ccccc2)CCS3)cc1`, for which the “activity change, negative = cytotoxicity” value is inactive: -3.54%.

Turning to `Cc1oc2ncn(CC(C)C)c(=O)c2c1C(=O)NCCCN(C)Cc1ccccc1`, the “activity change, negative = cytotoxicity” value is inactive: 7.96%.

On to `COc1cc(-c2nnc(SCCOc3ccccc3)o2)cc(OC)c1OC`, for which the “activity change, negative = cytotoxicity” value is inactive: -6.01%.

As to `CCOC(=O)Cn1c(=O)oc2cc(S(=O)(=O)Nc3ccccc3F)ccc21`, the “activity change, negative = cytotoxicity” value was inactive: -11.1%.

`CCOC(=O)c1c(SCC(=O)Nc2cccc(C)c2C)nc(=O)[nH]c1C`: the “activity change, negative = cytotoxicity” value is inactive: -4.07%.

Take `Cc1oc2c(C)c3oc(=O)c(CCC(=O)N4CCCCC4)c(C)c3cc2c1C`: the “activity change, negative = cytotoxicity” value is inactive: -20.1%.

As to `Cc1cc2oc(C(=O)Nc3ccc(S(=O)(=O)N(C)c4ccccc4)cc3)cc(=O)c2cc1C`, the “activity change, negative = cytotoxicity” value was inactive: -1.67%.

Regarding `O=S(=O)(c1ccc2nc(Nc3ccc(Br)cc3F)ccc2c1)N1CCCCC1`, the “activity change, negative = cytotoxicity” value is inactive: 12.6%.

Turning to `CCSc1nc2sc3c(c2c(=O)n1-c1ccc(C)c(Cl)c1)CCN(C(C)=O)C3`, the “activity change, negative = cytotoxicity” value was inactive: 27.9%.

As for `Cc1ccc(NC(=O)CSc2nccn2-c2ccccc2)cc1`, the “activity change, negative = cytotoxicity” value was inactive: -12.3%.

For the molecule `O=C(COc1ccccc1Cl)Nc1ccc2nc(SCC(=O)N3CCOCC3)sc2c1`, the “activity change, negative = cytotoxicity” value is inactive: 3.77%.

Turning to `CCc1nccn1S(=O)(=O)c1cc(Br)ccc1Br`, the “activity change, negative = cytotoxicity” value was inactive: 0.25%.

Consider `COc1ccc(C)cc1NC(=O)CN(C)S(=O)(=O)c1ccc2[nH]c(=O)oc2c1`, for which the “activity change, negative = cytotoxicity” value is inactive: -6.16%.

Consider `CCc1ccc(-c2[nH]nc3nc(-c4cc(OC)ccc4OC)cc(C(=O)O)c23)cc1`, for which the “activity change, negative = cytotoxicity” value was inactive: -0.791%.

For `COC(=O)c1sccc1S(=O)(=O)N(CC(=O)Nc1cc(F)ccc1F)c1ccc(C)c(C)c1`, the “activity change, negative = cytotoxicity” value was inactive: -21.4%.

Regarding `Cc1ccccc1Cn1cc(S(=O)(=O)c2ccc(F)cc2)c(=O)c2cc3c(cc21)OCO3`, the “activity change, negative = cytotoxicity” value was inactive: 23.8%.

In the case of `Cc1ccc(NC(=O)Cn2c(=O)n(CCCCC(=O)NCCc3ccccc3)c(=O)c3ccccc32)cc1`, the “activity change, negative = cytotoxicity” value was inactive: 5.08%.

On to `Cc1cc(=O)n(Cc2ccc(Br)cc2F)c2c1c(C)nn2-c1ccccc1`, for which the “activity change, negative = cytotoxicity” value was inactive: -1.11%.

With `O=C(CCNS(=O)(=O)c1ccc2c(c1)CCCC(=O)N2)NCc1ccc(Cl)cc1`, the “activity change, negative = cytotoxicity” value was inactive: -0.669%.

For the molecule `Cc1cc(Cl)ccc1OCCSc1nnc(-c2cccs2)o1`, the “activity change, negative = cytotoxicity” value was inactive: -19.6%.

Take `CCOc1ccc(NC(=O)N2CCN(C(=O)c3nsc4ccccc34)CC2)cc1`: the “activity change, negative = cytotoxicity” value was inactive: -4.49%.
